Reference: the GPR68 mutational scans of Howard et al. (2025)
Scores with a large standard error are left out. Not listed are two conditions whose scores span a narrow range. In variant names, del marks residues removed and ins residues inserted between the two positions. For part of these data: The data file names ogerin without a concentration.

B1: GPR68, Q15743 (parent)
chain: MGNITADNSSMSCTIDHTIHQTLAPVVYVTVLVVGFPANCLSLYFGYLQIKARNELGVYLCNLTVADLFYICSLPFWLQYVLQHDNWSHGDLSCQVCGILLYENIYISVGFLCCISVDRYLAVAHPFRFHQFRTLKAAVGVSVVIWAKELLTSIYFLMHEEVIEDENQHRVCFEHYPIQAWQRAINYYRFLVGFLFPICLLLASYQGILRAVRRSHGTQKSRKDQIQRLVLSTVVIFLACFLPYHVLLLVRSVWEASCDFAKGVFNAYHFSLLLTSFNCVADPVLYCFVSETTHRDLARLRGACLAFLTCSRTGRAREAYPLGAPEASGKSGAQGEEPELLTKLHPAFQTPNSPGSGGFPTGRLA

Experiments:
[1] = variants of: B1; assay: cAMP reporter score (Enrich2 score, wild type = 0); higher = more signal; HEK293T, FACS bins
[2] = variants of: B1; assay: surface expression score (Enrich2 score, wild type = 0); higher = more signal; HEK293T, FACS bins

| Variant | cAMP reporter score ([1]; pH 5.5) | cAMP reporter score ([1]; pH 6, modulator: ogerin) | cAMP reporter score ([1]; pH 6) | cAMP reporter score ([1]; pH 6.5, modulator: ogerin) | surface expression score [2] |
| --- | --- | --- | --- | --- | --- |
| MGNITADNSSMSCTIDHTIHQTLAPVVYVTVLVVGFPANCLSLYFGYLQIKARNELGVYLCNLTVADLFYICSLPFWLQYVLQHDNWSHGDLSCQVCGILLYENIYISVGFLCCISVDRYLAVAHPFRFHQFRTLTAAVGVSVVIWAKELLTSIYFLMHEEVIEDENQHRVCFEHYPIQAWQRAINYYRFLVGFLFPICLLLASYQGILRAVRRSHGTQKSRKDQIQRLVLSTVVIFLACFLPYHVLLLVRSVWEASCDFAKGVFNAYHFSLLLTSFNCVADPVLYCFVSETTHRDLARLRGACLAFLTCSRTGRAREAYPLGAPEASGKSGAQGEEPELLTKLHPAFQTPNSPGSGGFPTGRLA [K136T] | 2.5 | 0.627 |  |  |  |
| MGNITADNSSMSCTIDHTIHQTLAPVVYVTVLVVGFPANCLSLYFGYLQIKARNELGVYLCNLTVADLFYICSLPFWLQYVLQHDNWSHGDLSCQVCGILLYENIYISVGFLCCISVDRYLAVAHPFRFHQFRTLVAAVGVSVVIWAKELLTSIYFLMHEEVIEDENQHRVCFEHYPIQAWQRAINYYRFLVGFLFPICLLLASYQGILRAVRRSHGTQKSRKDQIQRLVLSTVVIFLACFLPYHVLLLVRSVWEASCDFAKGVFNAYHFSLLLTSFNCVADPVLYCFVSETTHRDLARLRGACLAFLTCSRTGRAREAYPLGAPEASGKSGAQGEEPELLTKLHPAFQTPNSPGSGGFPTGRLA [K136V] | -0.404 | -1.27 | -1.12 | -1.03 | -2.78 |
| MGNITADNSSMSCTIDHTIHQTLAPVVYVTVLVVGFPANCLSLYFGYLQIKARNELGVYLCNLTVADLFYICSLPFWLQYVLQHDNWSHGDLSCQVCGILLYENIYISVGFLCCISVDRYLAVAHPFRFHQFRTLWAAVGVSVVIWAKELLTSIYFLMHEEVIEDENQHRVCFEHYPIQAWQRAINYYRFLVGFLFPICLLLASYQGILRAVRRSHGTQKSRKDQIQRLVLSTVVIFLACFLPYHVLLLVRSVWEASCDFAKGVFNAYHFSLLLTSFNCVADPVLYCFVSETTHRDLARLRGACLAFLTCSRTGRAREAYPLGAPEASGKSGAQGEEPELLTKLHPAFQTPNSPGSGGFPTGRLA [K136W] | -1.53 | -1.26 | -0.932 | -1.29 | -2.04 |
| MGNITADNSSMSCTIDHTIHQTLAPVVYVTVLVVGFPANCLSLYFGYLQIKARNELGVYLCNLTVADLFYICSLPFWLQYVLQHDNWSHGDLSCQVCGILLYENIYISVGFLCCISVDRYLAVAHPFRFHQFRTLYAAVGVSVVIWAKELLTSIYFLMHEEVIEDENQHRVCFEHYPIQAWQRAINYYRFLVGFLFPICLLLASYQGILRAVRRSHGTQKSRKDQIQRLVLSTVVIFLACFLPYHVLLLVRSVWEASCDFAKGVFNAYHFSLLLTSFNCVADPVLYCFVSETTHRDLARLRGACLAFLTCSRTGRAREAYPLGAPEASGKSGAQGEEPELLTKLHPAFQTPNSPGSGGFPTGRLA [K136Y] | -2.08 | -0.636 |  | -1.04 | -1.64 |
| K136_A137del | -1.42 | -1.44 | -1.52 | -1.49 | -2.39 |
